Measured values from PubChem BioAssay AID488969 (Vanderbilt High Throughput Screening Facility, 2010).
The full ranking holds about 110,000 compounds; the median of “z-score” is about -0.1, and the highest 2% start at about 2. The list shows a part of the results.

Target: Metabotropic glutamate receptor 8 (Rattus norvegicus) (UniProt P70579)
Assay: mGluR8 Gi/Go-coupled signaling modulation – cell-based, rat, thallium flux, HTS, primary screen (AID 488969)
Conditions: HEK293 rat mGluR8, GIRK (G protein-gated inwardly rectifying potassium channel) thallium flux, FluoZin2; at 10 µM; stronger effect = higher value; submaximal glutamate (EC20) added with thallium

Sequence of UniProt P70579 (P70579 whole entry, looked up): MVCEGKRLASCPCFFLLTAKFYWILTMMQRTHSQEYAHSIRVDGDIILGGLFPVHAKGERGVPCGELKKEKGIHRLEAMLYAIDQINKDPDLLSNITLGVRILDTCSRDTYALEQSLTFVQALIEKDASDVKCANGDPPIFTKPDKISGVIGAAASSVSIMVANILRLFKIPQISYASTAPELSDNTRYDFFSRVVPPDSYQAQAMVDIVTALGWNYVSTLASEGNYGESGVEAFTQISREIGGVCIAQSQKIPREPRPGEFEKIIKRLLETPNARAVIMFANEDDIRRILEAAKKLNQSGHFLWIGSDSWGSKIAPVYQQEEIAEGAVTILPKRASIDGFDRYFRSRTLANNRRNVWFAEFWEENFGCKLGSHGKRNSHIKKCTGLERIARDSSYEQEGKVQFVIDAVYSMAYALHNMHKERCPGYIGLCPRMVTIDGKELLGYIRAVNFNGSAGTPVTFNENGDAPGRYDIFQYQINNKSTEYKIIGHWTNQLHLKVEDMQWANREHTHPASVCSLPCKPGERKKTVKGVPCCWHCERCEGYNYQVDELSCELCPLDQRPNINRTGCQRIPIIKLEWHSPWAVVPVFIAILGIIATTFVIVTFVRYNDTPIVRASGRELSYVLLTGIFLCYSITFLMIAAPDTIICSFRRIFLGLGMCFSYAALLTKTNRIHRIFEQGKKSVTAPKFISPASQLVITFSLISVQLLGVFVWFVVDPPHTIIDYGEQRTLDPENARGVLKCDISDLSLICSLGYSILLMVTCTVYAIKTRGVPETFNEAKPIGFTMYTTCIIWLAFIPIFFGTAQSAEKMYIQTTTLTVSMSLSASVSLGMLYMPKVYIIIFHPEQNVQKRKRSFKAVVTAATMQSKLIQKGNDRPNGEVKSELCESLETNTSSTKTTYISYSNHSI

| Structure (SMILES) | z-score |
| --- | --- |
| C=CCNCCCCOc1ccc(Br)cc1C | -0.109 |
| Cc1cc(C(=O)CSc2nnnn2C)c(C)n1CCc1ccc(Cl)cc1 | -1.09 |
| CC(C)(C)c1ccc(C(=O)N/C(N)=N/c2nc3ccccc3o2)cc1 | 0.248 |
| O=C(NC(=S)NC1CC1)c1cccnc1 | 0.798 |
| CCN(CC)C(=O)c1sc(NC(=O)c2ccc(C)c([N+](=O)[O-])c2)c(C#N)c1C | 0.0677 |
| CCS(=O)(=O)N1CCN(C(=O)c2ccco2)CC1 | -0.17 |
| CC1CCCC(NC(=O)C2CCCN2S(=O)(=O)c2cccc3nsnc23)C1C (stereo not drawn) | -0.00781 |
| COc1ccc(OC)c(C(=O)CSc2nnc(Cc3cccs3)n2CCc2ccccc2)c1 | -0.216 |
| CC1(C)NC(=O)N(CCCCOc2ccc(Br)cc2Cl)C1=O | -0.129 |
| COc1ccc(CCNC(=O)CSCc2n[nH]c(=O)[nH]2)cc1OC | 0.936 |
| O=S(=O)(CCCc1ccccc1)c1ncn[nH]1 | 0.147 |
| CC(C)(C)NS(=O)(=O)c1ccc(CCC(=O)N2CCOCC2)cc1 | -0.128 |
| COCCN(CCOC)C(=O)c1cc2c(=O)n3ccccc3nc2s1 | -0.489 |
| CCc1nnc(NC(=O)CSc2nnc(-c3cc4ccccc4cc3O)n2CCOC)s1 | -0.0306 |
| Cc1ccc([N+](=O)[O-])cc1NC(=O)CN1CCC(C)CC1 | -0.169 |
| Cc1cc2c3c(c1)C1(C(=O)N3C(C)(C)CC2C)C(C#N)=C(N)Oc2cc(O)ccc21 (stereo not drawn) | 0.791 |
| Cc1cc(C(=O)CSc2nc(N)cc(=O)[nH]2)c(C)n1CCc1ccc(Cl)cc1 | 0.0115 |
| CCCN1C(=O)/C(=N\OCC(=O)NCC(F)(F)F)c2ccccc21 | -0.393 |
| O=C(Cn1nc(-c2ccc3c(c2)OCCO3)ccc1=O)Nc1ccc(N2CCOCC2)cc1 | 0.0486 |
| CCOC(=O)/C=C1\SCC(=O)N1CC(=O)NCc1cccc(Cl)c1 | 1.26 |
| COc1ccc(C(C)=O)cc1CSc1nnc(Nc2c(C)cccc2C)s1 | -0.239 |
| O=C(/C(=C/c1cccc(Cl)c1)c1nc2ccccc2[nH]1)c1ccccc1 | -0.206 |

| Structure (SMILES) | z-score |
| --- | --- |
| Cc1ccccc1NC(=S)NCc1ccco1 | -0.178 |
| O=C(c1ccc(S(=O)(=O)c2ccccc2)cc1)N1CCCCCC1 | -0.185 |
| C=CCN(CCNP(=O)(OCC)OCC)CP(=O)(OCC)OCC | 0.044 |
| CNC(=O)CN1C(=O)C2C3C=CC(C3)C2C1=O (stereo not drawn) | 0.633 |
| CC(Sc1cccc[n+]1[O-])C(=O)Nc1cccc(S(=O)(=O)N2CCOCC2)c1 (stereo not drawn) | -0.153 |
| COc1ccc(-n2c(=S)[nH]c3cc(C(=O)NCCCN4CCCC4=O)ccc3c2=O)c(OC)c1 | 0.589 |
| O=c1cc(O)c(-c2ccccc2)c(Cl)[nH]1 | -0.318 |
| O=C(CSc1nnnn1-c1ccccc1)Nc1nc(-c2ccccc2)ns1 | 0.742 |
| Cc1ccc(C(C(=O)NCc2ccccc2)N(Cc2cccs2)C(=O)c2ccc3c(c2)OCCO3)cc1 (stereo not drawn) | -0.331 |
| CC(=O)NNC(=O)C(O)(c1ccccc1)c1ccccc1 | -0.0895 |
| CCc1sc(NC(=O)COC)nc1-c1ccccc1 | 0.769 |
| Cc1ccc(S(=O)(=O)NC2c3cccc4cccc(c34)C2Sc2n[nH]c(N)n2)cc1 (stereo not drawn) | -0.129 |
| CCCC1S/C(=N/N=C/c2ccco2)NC1=O (stereo not drawn) | 0.687 |
| CN(CC(=O)NCc1ccc(F)cc1)S(=O)(=O)c1cccc2nsnc12 | 0.00752 |
| CCSc1nc(-c2ccccc2)c2cc(Cl)ccc2n1 | -0.0154 |
| C=CCOC(=O)C1=C(C)NC(SCC(=O)Nc2ccccc2)=C(C#N)C1c1ccco1 (stereo not drawn) | 0.334 |
| c1csc(C2C3=C(Nc4ncnn42)c2ccccc2OC3)c1 (stereo not drawn) | -1.39 |
| O=C(Cc1ccccc1)Nc1c[nH]c(=O)[nH]c1=O | -0.449 |
| O=C(NC1(C(F)(F)F)NC(=O)N(Cc2cccnc2)C1=O)c1ccc(F)cc1 (stereo not drawn) | 0.269 |
| O=C(Nc1nc(-c2ccc(S(=O)(=O)N3CCCC3)cc2)cs1)c1cccs1 | 0.246 |
| CCOc1ccc(N=c2scc(-c3ccccc3)n2CCO)cc1 | -0.02 |
| O=[N+]([O-])c1cc(C(F)(F)F)c(Cl)cc1N1CCN(CCO)CC1 | -0.0504 |

| Structure (SMILES) | z-score |
| --- | --- |
| COc1ccc(C(C)=O)cc1CN1C(=O)NC2(CCCCCC2)C1=O | -0.0628 |
| COc1ccc(NC(=O)CSc2nnc(COc3ccccc3)n2Cc2ccco2)cc1OC | -0.561 |
| S=C(NCCc1ccccc1)Nc1ccc(Cl)cc1Cl | 1.43 |
| Cc1ccc(C2CC(=O)N3CN(Cc4ccco4)CSC3=C2C#N)cc1 (stereo not drawn) | 0.0204 |
| CCCCN(CCCC)CCNC(=O)Cc1nc2c(c(=O)[nH]c(=O)n2C)n1C | 0.198 |
| Clc1ccc(SCc2cc(-c3ccc(Cl)cc3)on2)cc1 | -0.169 |
| Cc1cc2cc(CNC(=O)c3ccc4c(c3)OCO4)ccc2[nH]1 | -0.404 |
| Cc1ccc(S(=O)(=O)N(C)CC(=O)OCC(=O)c2c(N)n(C)c(=O)n(C)c2=O)cc1 | 0.00287 |
| CC1CCCCN1C(=O)CSc1nc(C2CC2)nc2c1cnn2-c1ccccc1 (stereo not drawn) | -0.0765 |
| Cc1ccc(OCC(=O)N2CCN(S(=O)(=O)c3ccccc3)CC2)c([N+](=O)[O-])n1 | -0.252 |
| Cc1cc(C)n(-c2ccc(C(=O)Nc3ccc4c(c3)OCO4)cc2)n1 | -0.499 |
| Cc1cc(C)nc(-n2nc(C)c(Oc3ccccc3O)c2C)n1 | -0.176 |
| COc1ccc(-c2csc(NC(=O)CSc3nc(SC)ns3)n2)cc1 | -0.0415 |
| O=C(/C=C/c1cccc([N+](=O)[O-])c1)Nc1cccc(NC(=O)c2cccs2)c1 | 0.123 |
| COC(=O)c1sccc1NC(=O)CSc1ccccc1NS(=O)(=O)c1ccc(F)cc1 | 0.941 |
| COc1ccc(N2CCN(C(c3cc(OC)ccc3OC)c3nnnn3CC3CCCO3)CC2)cc1 (stereo not drawn) | -0.274 |
| CCSc1ccc(C(=O)Nc2cccc(C)n2)cc1[N+](=O)[O-] | -0.169 |
| CCOc1nc(C)ccc1-c1noc(-c2ccccn2)n1 | 0.421 |
| O=c1[nH]c2ccc(S(=O)(=O)N3CCC(Cc4ccccc4)CC3)cc2o1 | -0.00931 |
| COc1ccc(OC)c(C2=Nn3c(nnc3C3CCCCC3)SC2)c1 | -1.01 |
| COCCSc1ccccc1C(=O)NCc1ccco1 | 0.383 |
| COc1ccc(/C(N)=N/OC(=O)c2cc(-c3ccccc3)nc3ccccc23)cc1 | -0.412 |

| Structure (SMILES) | z-score |
| --- | --- |
| Cc1ccc(S(=O)(=O)N2CCOCC2)cc1NC(=O)c1cc2c(s1)CCC2 | -0.409 |
| CCOc1cc2[nH]c(=S)n(Cc3ccc(C(=O)NCC(OC)OC)cc3)c(=O)c2cc1OCC | 0.127 |
| O=C(NCc1cccc(Cl)c1)c1ccc2c(c1)OCO2 | 0.172 |
| COCC(=O)Nc1cc(C(=O)Nc2ccccc2C)ccc1Cl | 0.0183 |
| Cc1cc(Nc2c(C)cccc2C)n2nc(C)nc2n1 | -0.233 |
| CC(=O)c1ccc(Cc2ncc(C(F)(F)F)cc2Cl)s1 | -0.823 |
| COc1ccc(C2CC(c3cc(OC)ccc3OC)n3nnnc3N2)cc1 (stereo not drawn) | -0.434 |
| O=C(Oc1cccc2cccnc12)c1ccc2c(c1)OCCO2 | -0.00985 |
| CC(=O)NCCOc1cccc(OCCNC(C)=O)c1 | 0.179 |
| CCN(CC)S(=O)(=O)c1ccc2c(c1)nc(SCn1nnc3ccccc3c1=O)n2CC | -0.0802 |
| Cc1noc(C)c1S(=O)(=O)Nc1ccc(C(=O)N2CCN(c3ccc(Cl)cc3)CC2)cc1 | -0.984 |
| Cc1ccc(C2=NN=C(NC(=O)CSc3nc(C)cc(C)n3)SC2)cc1 | -0.0372 |
| O=C(N=Nc1c(O)n(Cc2ccccc2)c2ccccc12)c1cc2ccccc2cc1O | -0.0283 |
| O=C(OC(C(=O)NCC1CCCO1)c1ccccc1F)c1ccco1 (stereo not drawn) | 0.0215 |
| COC(=O)C(NNc1ccccc1)(NC(=O)c1cccc(F)c1)C(F)(F)F (stereo not drawn) | -0.19 |
| CCOC(=O)N1CCN(C(=O)CN(Cc2ccc(Cl)cc2)S(C)(=O)=O)CC1 | 1.38 |
| CCCCNc1cc(NC(C)=O)cc2cc(OC)c(OC)cc12 | -0.206 |
| O=C(NC(=S)Nc1ccc2c(c1)C(=O)c1ccccc1C2=O)c1ccc(F)cc1 | 0.202 |
| O=C(NCCc1nc2ccccc2[nH]1)/C(=C/c1ccc2c(c1)OCO2)NC(=O)c1ccccc1 | -0.434 |
| Cc1cc(N2CCCCC2)nc2ccc(NC(=O)CCC(=O)NCCC(C)C)cc12 | 0.0395 |
| CCN(CC)C(=O)C1CCCN(c2ccc([N+](=O)[O-])cc2/C=N/NC(=O)c2cccc(O)c2)C1 (stereo not drawn) | -0.317 |
| C/C=C(\C)c1nnc(NC(=O)c2ccco2)s1 | -0.358 |

| Structure (SMILES) | z-score |
| --- | --- |
| COC(=O)NCc1cc2cc(Cl)ccc2[nH]1 | 0.0934 |
| Cc1nn(-c2ccc(F)cc2)c2sc(C(=O)OCC(=O)N3CCC(C)CC3)cc12 | 0.389 |
| NC(=O)C1CCN(C(=O)CCSc2ccccc2)CC1 | 0.469 |
| COc1ccc(-c2nc(C#N)c(NCCc3ccccc3)o2)cc1OC | -1.21 |
| Cn1cccc1C(=O)OCC(=O)c1cc2ccccc2o1 | -0.00869 |
| CCCNC(=O)Cn1nc([N+](=O)[O-])c([N+](=O)[O-])c1C | -0.278 |
| Cc1c(NC(=O)c2n[nH]c(=O)c3ccccc23)c(=O)n(-c2ccccc2)n1C | -0.159 |
| CCCC(=O)Nc1nc2nc(-c3ccccc3)cc(=O)n2[nH]1 | -0.289 |
| COc1ccc(Cl)cc1NC(=O)C(C)N(C)Cc1ccc(C(F)(F)F)cc1 (stereo not drawn) | -0.0204 |
| Cn1cccc1Cc1nnc(SCC(=O)NC2CCCC2)n1-c1ccc(F)cc1 | 2.33 |
| O=C(O)/C=C/c1coc2ccc(F)cc2c1=O | 0.248 |
| Cn1c(=O)c2c(nc(SCc3cccnc3)n2Cc2ccc(F)cc2)n(C)c1=O | -0.105 |
| CCOc1ccc(C(=O)C2CCN(C(=O)c3ccccc3C(=O)O)CC2)cc1 | -0.0212 |
| Cc1ccc(OCC(=O)Nc2ccc(O)c(C(=O)O)c2)cc1C | 0.0933 |
| Cc1ccc2nc(NC(=O)C3=NN(c4ccccc4)C(=O)CC3)sc2c1 | 0.175 |
| O/C(=C\Sc1nnc(Cc2ccccc2)o1)c1ccc(Br)cc1 | -0.229 |
| Cc1cc(C(=O)Nc2nc3c(s2)CCCC3)no1 | 0.438 |
| CCOC(=O)N1CCN(C(=O)CN(c2ccc(OC)cc2)S(C)(=O)=O)CC1 | 0.0562 |
| Cc1cc(C)c(NC(=O)CN2CCOCCOCCOCCOCC2)c(C)c1 | -0.281 |
| CCOc1nc(-c2ccccc2O)nc2ccccc12 | 0.892 |
